# Experimental data from the supplement of paper PMC8728848.
# The list shows a part of the results.
# B1: PX9961C-bth-497-22-497 (Bacteroides thetaiotaomicron) (protein)
# chain: DWLDLNTTSSVETGQAIVTLDDAQIALNGIYRLASGHSYYGDNYWYYGDCRAADVQARITKGDGKRVSPYYEYNVLASDNLNIVLPWNTVYKVIRQTNNLIQKIESGSIQSSDTKELNRIKSEALVMRGLSLFNLTRLFGMPYTNDKGASLGVPIETSPSDPTHKPSRSTVAQCYEQVVSDMSNALSGLRQETSNGYINYWAAQALLSRVYLNMGEYQKAYDAATDVIKNNGGRYQLYSYEEYPNVWGQDFQSESLFELYITLSEPSGGTGGEGAPMVYANEATVDWNNLILSEDFLNLLNEDPKDVRHCLTKESVIENNTGLPAAAMHEKVYLAKFPGKTGDDPKTNNICIIRLSEVYLNAAEAGLKKGTDIEEAQGYLNDIISRRTTDTSQQVSTETFTLDRILKERRKELVGEGEVFYDYLRNGLAIERKGSWHLETLKASNAQKIEATDLRIALPIPQSEIDANPNIQQNPR
# Columns and labels:
# Assay in all cases: glycan array binding signal (z-score within array); higher = stronger binding
# Conditions in all cases: glycan notation: IUPAC condensed, linker removed
# [1] = molecular target: Neu5Ac(a2-3)Gal(b1-4)GlcNAc(b1-3)Gal(b1-4)GlcNAc(b1-3)Gal(b1-4)GlcNAc
# Outline: (§1)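 The binding signal is a Z-score computed within each array. Data were drawn from 3228 arrays in the Consortium for Functional Glycomics database, restricted to those with a known protein sequence. Scores were averaged over arrays of the same protein sequence at different concentrations or buffers, and over linkers, and negative values can be taken as non-binding.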
# [2] = molecular target: Neu5Ac(a2-3)Gal(b1-4)GlcNAc(b1-3)Gal(b1-4)GlcNAc(b1-3)Gal(b1-4)GlcNAc(b1-2)Man(a1-3)[Neu5Ac(a2-3)Gal(b1-4)GlcNAc(b1-3)Gal(b1-4)GlcNAc(b1-3)Gal(b1-4)GlcNAc(b1-2)Man(a1-6)]GalNAc
# Outline: as §1
# [3] = molecular target: Neu5Ac(a2-3)Gal(b1-4)GlcNAc(b1-3)Gal(b1-4)GlcNAc(b1-3)GalNAc
# Outline: as §1
# [4] = molecular target: Neu5Ac(a2-3)Gal(b1-4)GlcNAc(b1-3)Gal(b1-4)GlcNAc(b1-3)[Neu5Ac(a2-3)Gal(b1-4)GlcNAc(b1-3)Gal(b1-4)GlcNAc(b1-6)]GalNAc
# Outline: as §1
# [5] = molecular target: Neu5Ac(a2-3)Gal(b1-4)GlcNAc(b1-3)Gal(b1-4)GlcNAc(b1-6)[Gal(b1-3)]GalNAc
# Outline: as §1
# [6] = molecular target: Neu5Ac(a2-3)Gal(b1-4)GlcNAc(b1-3)Gal(b1-4)[Fuc(a1-3)]GlcNAc
# Outline: as §1
# [7] = molecular target: Neu5Ac(a2-3)Gal(b1-4)GlcNAc(b1-3)GalNAc
# Outline: as §1
# [8] = molecular target: Neu5Ac(a2-3)Gal(b1-4)GlcNAc(b1-3)[Neu5Ac(a2-3)Gal(b1-4)GlcNAc(b1-6)]GalNAc
# Outline: as §1
# [9] = molecular target: Neu5Ac(a2-3)Gal(b1-4)GlcNAc(b1-6)GalNAc
# Outline: as §1
# [10] = molecular target: Neu5Ac(a2-3)Gal(b1-4)GlcNAc(b1-6)[Gal(b1-3)]GalNAc
# Outline: as §1
# [11] = molecular target: Neu5Ac(a2-3)Gal(b1-4)GlcNAc(b1-6)[Neu5Ac(a2-3)Gal(b1-3)]GalNAc
# Outline: as §1
# [12] = molecular target: Neu5Ac(a2-3)Gal(b1-4)GlcNAc6S
# Outline: as §1
# [13] = molecular target: Neu5Ac(a2-3)Gal(b1-4)[Fuc(a1-3)]GlcNAc
# Outline: as §1
# [14] = molecular target: Neu5Ac(a2-3)Gal(b1-4)[Fuc(a1-3)]GlcNAc(b1-2)Man
# Outline: as §1
# [15] = molecular target: Neu5Ac(a2-3)Gal(b1-4)[Fuc(a1-3)]GlcNAc(b1-3)Gal
# Outline: as §1
# [16] = molecular target: Neu5Ac(a2-3)Gal(b1-4)[Fuc(a1-3)]GlcNAc(b1-3)Gal(b1-4)GlcNAc
# Outline: as §1
# [17] = molecular target: Neu5Ac(a2-3)Gal(b1-4)[Fuc(a1-3)]GlcNAc(b1-3)Gal(b1-4)[Fuc(a1-3)]GlcNAc(b1-3)Gal(b1-4)[Fuc(a1-3)]GlcNAc
# Outline: as §1
# [18] = molecular target: Neu5Ac(a2-3)Gal(b1-4)[Fuc(a1-3)]GlcNAc(b1-3)GalNAc
# Outline: as §1
# [19] = molecular target: Neu5Ac(a2-3)Gal(b1-4)[Fuc(a1-3)]GlcNAc(b1-6)[Gal(b1-3)]GalNAc
# Outline: as §1
# [20] = molecular target: Neu5Ac(a2-3)Gal(b1-4)[Fuc(a1-3)]GlcNAc(b1-6)[Neu5Ac(a2-3)Gal(b1-3)]GalNAc
# Outline: as §1
# [21] = molecular target: Neu5Ac(a2-3)Gal(b1-4)[Fuc(a1-3)]GlcNAc6S
# Outline: as §1
# [22] = molecular target: Neu5Ac(a2-3)Gal6S(b1-4)GlcNAc
# Outline: as §1
# [23] = molecular target: Neu5Ac(a2-3)Gal6S(b1-4)[Fuc(a1-3)]GlcNAc
# Outline: as §1
# Neu5Ac(a2-3)GalNAc = molecular target: Neu5Ac(a2-3)GalNAc
# Outline: as §1
# [24] = molecular target: Neu5Ac(a2-3)GalNAc(b1-4)GlcNAc
# Outline: as §1
# [25] = molecular target: Neu5Ac(a2-3)[GalNAc(b1-4)]Gal(b1-4)Glc
# Outline: as §1
# [26] = molecular target: Neu5Ac(a2-3)[GalNAc(b1-4)]Gal(b1-4)GlcNAc
# Outline: as §1
# [27] = molecular target: Neu5Ac(a2-3)[GalNAc(b1-4)]Gal(b1-4)GlcNAc(b1-3)GalNAc
# Outline: as §1
# [28] = molecular target: Neu5Ac(a2-3)[Neu5Ac(a2-6)]GalNAc
# Outline: as §1
# Neu5Ac(a2-6)Gal = molecular target: Neu5Ac(a2-6)Gal
# Outline: as §1
# [29] = molecular target: Neu5Ac(a2-6)Gal(b1-3)GlcNAc(b1-3)[Gal(b1-4)GlcNAc(b1-6)]Gal(b1-4)Glc
# Outline: as §1
# Neu5Ac(a2-6)Gal(b1-4)Glc = molecular target: Neu5Ac(a2-6)Gal(b1-4)Glc
# Outline: as §1
# [30] = molecular target: Neu5Ac(a2-6)Gal(b1-4)GlcNAc
# Outline: as §1
# [31] = molecular target: Neu5Ac(a2-6)Gal(b1-4)GlcNAc(b1-2)Man
# Outline: as §1
# [32] = molecular target: Neu5Ac(a2-6)Gal(b1-4)GlcNAc(b1-2)Man(a1-3)Man(b1-4)GlcNAc(b1-4)GlcNAc
# Outline: as §1
# [33] = molecular target: Neu5Ac(a2-6)Gal(b1-4)GlcNAc(b1-2)Man(a1-3)[Gal(b1-4)GlcNAc(b1-2)Man(a1-6)]Man(b1-4)GlcNAc(b1-4)GlcNAc
# Outline: as §1
# [34] = molecular target: Neu5Ac(a2-6)Gal(b1-4)GlcNAc(b1-2)Man(a1-3)[GlcNAc(b1-2)Man(a1-6)]Man(b1-4)GlcNAc(b1-4)GlcNAc
# Outline: as §1
# [35] = molecular target: Neu5Ac(a2-6)Gal(b1-4)GlcNAc(b1-2)Man(a1-3)[GlcNAc(b1-4)][Neu5Ac(a2-6)Gal(b1-4)GlcNAc(b1-2)Man(a1-6)]Man(b1-4)GlcNAc(b1-4)GlcNAc
# Outline: as §1
binder,measurement,setting,value
B1,glycan array binding signal (z-score),[1],0.052
same,glycan array binding signal (z-score),[2],0.868
same,glycan array binding signal (z-score),[3],-0.499
same,glycan array binding signal (z-score),[4],0.407
same,glycan array binding signal (z-score),[5],-0.285
same,glycan array binding signal (z-score),[6],-0.485
same,glycan array binding signal (z-score),[7],-0.534
same,glycan array binding signal (z-score),[8],-0.32
same,glycan array binding signal (z-score),[9],0.315
same,glycan array binding signal (z-score),[10],-0.188
same,glycan array binding signal (z-score),[11],0.025
same,glycan array binding signal (z-score),[12],-0.007
same,glycan array binding signal (z-score),[13],-0.233
same,glycan array binding signal (z-score),[14],0.374
same,glycan array binding signal (z-score),[15],-0.588
same,glycan array binding signal (z-score),[16],-0.101
same,glycan array binding signal (z-score),[17],0.773
same,glycan array binding signal (z-score),[18],-0.498
same,glycan array binding signal (z-score),[19],0.243
same,glycan array binding signal (z-score),[20],-0.117
same,glycan array binding signal (z-score),[21],-0.218
same,glycan array binding signal (z-score),[22],0.4
same,glycan array binding signal (z-score),[23],-0.316
same,glycan array binding signal (z-score),Neu5Ac(a2-3)GalNAc,-0.73
same,glycan array binding signal (z-score),[24],-0.602
same,glycan array binding signal (z-score),[25],-0.147
same,glycan array binding signal (z-score),[26],-0.469
same,glycan array binding signal (z-score),[27],-0.183
same,glycan array binding signal (z-score),[28],-0.012
same,glycan array binding signal (z-score),Neu5Ac(a2-6)Gal,0.311
same,glycan array binding signal (z-score),[29],-0.627
same,glycan array binding signal (z-score),Neu5Ac(a2-6)Gal(b1-4)Glc,-0.447
same,glycan array binding signal (z-score),[30],-0.122
same,glycan array binding signal (z-score),[31],-0.411
same,glycan array binding signal (z-score),[32],-0.302
same,glycan array binding signal (z-score),[33],-0.066
same,glycan array binding signal (z-score),[34],-0.304
same,glycan array binding signal (z-score),[35],-0.255
